From publication PMC4336329 (PLoS ONE, 2015)
The campaign covered roughly 310,000 compounds. About 2,200 (0.71%) showed an effect of 50% or more. Effects have a minus sign here. This is one part of the list.

Target: human ether-à-go-go-related gene (hERG) potassium channel (human, UniProt Q12809)
Test: primary screen, population patch clamp on CHO cells stably expressing hERG

Sequence of human ether-à-go-go-related gene (hERG) potassium channel (Q12809 whole entry, looked up): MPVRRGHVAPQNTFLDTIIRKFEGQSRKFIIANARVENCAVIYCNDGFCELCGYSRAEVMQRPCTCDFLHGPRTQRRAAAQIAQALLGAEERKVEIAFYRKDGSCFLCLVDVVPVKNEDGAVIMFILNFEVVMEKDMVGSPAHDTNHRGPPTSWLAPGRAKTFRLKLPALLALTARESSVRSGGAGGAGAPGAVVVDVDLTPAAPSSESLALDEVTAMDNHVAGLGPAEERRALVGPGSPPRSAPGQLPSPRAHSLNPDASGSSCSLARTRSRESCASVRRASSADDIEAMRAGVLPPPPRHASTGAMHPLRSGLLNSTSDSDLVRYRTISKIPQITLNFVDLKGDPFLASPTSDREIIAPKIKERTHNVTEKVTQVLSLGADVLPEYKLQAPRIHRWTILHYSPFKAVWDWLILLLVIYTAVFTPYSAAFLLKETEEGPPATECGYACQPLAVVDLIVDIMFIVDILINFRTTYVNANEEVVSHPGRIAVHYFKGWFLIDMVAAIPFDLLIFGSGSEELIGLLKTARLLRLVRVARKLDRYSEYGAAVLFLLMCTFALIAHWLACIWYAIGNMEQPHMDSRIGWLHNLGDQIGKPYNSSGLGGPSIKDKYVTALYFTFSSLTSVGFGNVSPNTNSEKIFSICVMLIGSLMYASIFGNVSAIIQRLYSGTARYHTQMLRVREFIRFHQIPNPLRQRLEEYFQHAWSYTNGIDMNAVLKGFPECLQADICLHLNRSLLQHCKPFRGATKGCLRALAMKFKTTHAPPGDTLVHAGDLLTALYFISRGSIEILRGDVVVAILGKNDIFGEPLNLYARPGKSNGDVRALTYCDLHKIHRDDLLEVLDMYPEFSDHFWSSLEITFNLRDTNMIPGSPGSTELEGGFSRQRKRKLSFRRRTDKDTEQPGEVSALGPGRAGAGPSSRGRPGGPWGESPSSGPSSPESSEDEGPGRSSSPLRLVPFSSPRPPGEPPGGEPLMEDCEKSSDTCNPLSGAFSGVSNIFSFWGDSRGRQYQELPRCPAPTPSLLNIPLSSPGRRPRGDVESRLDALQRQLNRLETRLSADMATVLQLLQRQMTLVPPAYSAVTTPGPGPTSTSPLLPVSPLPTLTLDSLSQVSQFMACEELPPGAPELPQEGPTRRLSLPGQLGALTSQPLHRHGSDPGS

Row | Structure (SMILES) | hERG current change (%, negative = inhibition) at 1uM [%]
1 | Cn1ncc([N+](=O)[O-])c1C(=O)Nc1ccc(-c2nc3ccccc3[nH]2)cc1 | 4.05
2 | Cc1c(NS(=O)(=O)c2cccs2)cccc1-c1nc2cccnc2s1 | 7.99
3 | CCN(CC)C(=O)COc1ccc(S(=O)(=O)N2CCCC2)cc1 | 12.3
4 | O=C(O)c1ccc2c3c(cccc13)C(=O)N(OS(=O)(=O)c1ccccc1)C2=O | 12.5
5 | CCc1ccc2c(COC(=O)c3n[nH]c4ccccc34)cc(=O)oc2c1 | 14.2
6 | Cc1ccc(C(C)n2cc(C(=O)NCc3ccccn3)nn2)cc1 (centres unmarked) | 12.9
7 | CC(=C\C(=O)O)/C(=C/c1ccco1)C(=O)O | 4.06
8 | COc1cc(C=O)c(Br)cc1OCC(=O)NCCc1ccccc1 | 6.21
9 | Cc1cccc(NS(=O)(=O)c2nnc(NC(=O)c3ccc(C)c(C)c3)s2)c1 | 12.6
10 | CC(C)C1Cc2nc(Cl)c(C#N)cc2CO1 (centres unmarked) | 6.32
11 | CC(=O)N(CN1C(=O)CCC1=O)c1ccc(Cl)c(Cl)c1 | 4.95
12 | CC1(C)Cc2c(sc3nc(C4CCCCC4)n(N)c(=O)c23)CO1 | 13.9
13 | CC1CCCCN1CCNC(=O)C1CC(=O)N(c2ccc(F)c(Cl)c2)C1 (centres unmarked) | -31.3
14 | NC(=O)CN(c1ccc([N+](=O)[O-])cc1)S(=O)(=O)c1ccccc1 | 1.01
15 | Cc1cc(C)c2nc(NC(=O)c3ccco3)sc2c1 | 16.6
16 | CN1CCC(NC(=O)Nc2ccc(Br)cc2)CC1 | 3.59
17 | Cc1[nH]c(=O)[nH]c(=S)c1C(=O)Nc1ccc(Cl)c(Cl)c1 | 16
18 | CCn1c(SCC(=O)O)nnc1C1CCCCC1 | 5.22
19 | CCCCN(C(=O)CNC(=O)c1ccco1)C(C(=O)NC1CCCCC1)c1cccnc1 (centres unmarked) | 2.11
20 | Cc1cn(C2C=CC(CO)O2)c(=O)[nH]c1=O (centres unmarked) | 7.44
21 | COC(=O)Cc1c(C)c2ccc(OC(C)C)cc2oc1=O | 4.34
22 | COc1ccc(CNc2nc3nc(C)c(Cl)c(=O)n3[nH]2)cc1OC | 5.7
23 | COC(=O)[C@@H]1C[C@@H]2CC[C@@H](O)C[C@@H]2N1Cc1ccc(C(F)(F)F)cc1 | -0.86
24 | O=C(Nc1c(S(=O)(=O)c2ccccc2)csc1Br)c1ccccc1Cl | 15.4
25 | COC(=O)C1CCC(C)(C(=O)Nc2ccccc2)C1(C)C (centres unmarked) | 8.91
26 | COCCNC(=O)CCn1nc(-c2ccc(Cl)cc2)ccc1=O | -0.638
